Data published in PubChem BioAssay AID686978 (National Center for Advancing Translational Sciences (NCATS), 2013).
The whole screen tested about 420,000 compounds, of which about 64,000 (15%) were called active. Inconclusive results, whose numbers are uncertain, are shown with a selection of clear calls. The call rests on the fitted dose curve; in most records, active means well fitted inhibition curve with a large enough effect; inconclusive means small, poorly fitted or top-dose-only effect; inactive means flat fitted curve, though single readings scatter. Potencies of inconclusive entries are left out as doubtful fits.

Assay: qHTS for Inhibitors of human tyrosyl-DNA phosphodiesterase 1 (TDP1): qHTS in cells in absence of CPT; further: nearly all actives have a fitted effect of over 55% in size
Conditions: DT40 Tdp1-/- hTDP1 cells, no CPT, ATP luminescence, 48 h; activity change, negative = growth inhibition: at 46.2 µM (top of the series) unless noted
Outline: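 Chicken DT40 Tdp1-/- cells complemented with human TDP1, screened without camptothecin (DMSO vehicle only), 400 cells/well. Compounds pin-transferred, cells incubated at 37 °C for at least 48 hr. Growth read as ATP-dependent luminescence (CellTiter-Glo, 30 min at RT).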
On the % scale 0 is the no-effect control and ±100 the full control effect; potency means the concentration at half of the fitted maximal effect; tags describe the fitted curve by direction and shape.

SMILES	Potency	activity change, negative = growth inhibition
COc1cccc(C(=O)C2CCCN(CC3=Cc4cc(OC)ccc4OC3)C2)c1 (configuration not stated)	inactive	
O=C(/C=C(O)/C=C/c1ccc(O)cc1)/C=C/c1ccc(O)cc1	inconclusive [inhibitor, single point]	
O=C1Nc2ccccc2C12Nc1ccccc1-c1nc3ccccc3n12 (configuration not stated)	active: 23.1 µM	
Cc1ccc(-c2sc(C(=O)Nc3ccc(Br)cc3)cc2CC(=O)O)cc1	inactive	
COc1cc2c(cc1OC)CN(C(=O)c1cc(=O)c3ccccc3o1)CC2	active: 3.26 µM	
CCCOc1ccccc1C1NC(=O)NC(C)=C1C(=O)OCc1ccccc1 (configuration not stated)	inconclusive [inhibitor, single point]	
CCOC(=O)C1CCN(S(=O)(=O)c2cccc(-c3cn4cccnc4n3)c2)CC1	inconclusive [inhibitor, single point]	
CCN(CC(=O)Nc1c(F)cccc1F)C(=O)CCCOc1ccccc1	inactive	
CCN(c1ccccc1)S(=O)(=O)c1ccc(C(=O)NCc2ccco2)cc1	inconclusive [inhibitor, partial curve]	
CC(=O)NC(c1ccc(F)c(F)c1)c1nc(-c2ccc3c(c2)OCO3)cs1 (configuration not stated)	inconclusive [inhibitor, single point]	
O=C(CCNS(=O)(=O)c1ccc(OC(F)(F)F)cc1)Nc1cccc(S(=O)(=O)N2CCCC2)c1	inconclusive [inhibitor, single point]	
COc1ccc(N(CC(=O)N2CCc3ccccc3C2)S(=O)(=O)c2c(C)nn(C)c2C)cc1	inconclusive [inhibitor, single point]	
COc1ccc(CN(C(=O)c2cccs2)c2nccs2)cc1OC	inconclusive [inhibitor, single point]	
O=C(CSc1nnc2ccc(-c3ccccn3)nn12)NCCc1ccccc1		inconclusive: -33.3% [inhibitor]
COc1cccc(/C=C(/C#N)c2ccc(Cl)cc2)c1OCc1cccc(C(=O)O)c1	inconclusive [inhibitor, single point]	
OCCC1CN(Cc2ccc(Oc3ncccn3)cc2)CCN1C1CCCC1 (configuration not stated)	inactive	
CSc1ccc(C2c3[nH]c4ccccc4c3CCN2C(=O)CCc2ccccc2)cc1 (configuration not stated)	inactive	
C=C1C[C@@]23CCC4[C@@](C)(CCC[C@@]4(C)C(=O)OC)C2CC[C@]1(OC(C)=O)C3 (some centres not stated)	inconclusive [inhibitor, single point]	
CSCc1nnc(NC(=O)c2ccc(S(=O)(=O)N(C)C)cc2)o1		inconclusive: -32.9% [inhibitor]
COc1cccc(CNC(=O)C2CCN(S(=O)(=O)c3ccc4c(ccn4C)c3)CC2)c1	inactive	
CNC(=S)N(CCc1c(C)[nH]c2ccc(Cl)cc12)Cc1cc(OC)c(OC)c(OC)c1	inconclusive [inhibitor, single point]	
COc1cc(Cl)c(C)cc1NC(=O)CCn1c(=O)c2cccn2c2cccnc21	inconclusive [inhibitor, single point]	
O=C(c1ccc(F)cc1)C(CN1CCOCC1)c1ccccc1 (configuration not stated)	active: 1.3 µM	
COc1cccc(C(=O)Nc2ccc(S(=O)(=O)N3CCN(C)CC3)cc2)c1	inactive	

SMILES	Potency	activity change, negative = growth inhibition
CCC(c1nc2ccccc2[nH]1)N(C(=O)C1=NNC(=O)CC1)c1ccccc1 (configuration not stated)	inactive	
COCCCNC1=C(C#N)C(=O)NC(c2cccc([N+](=O)[O-])c2)S1 (configuration not stated)	inconclusive [inhibitor, single point]	
O=C(NCCc1ccc(C(F)(F)F)cc1)C1CCC(=O)N(C2CC2)C1 (configuration not stated)	inactive	
COc1cccc(/C=N/n2c(-c3ccco3)nc3ccccc3c2=O)c1OC	inconclusive [inhibitor, partial curve, poor fit]	
CCN1CCN(CC(=O)Nc2nc3ccc(OC)cc3s2)CC1	inconclusive [inhibitor, single point]	
Cc1c(-c2cccc(Cl)c2)nc2ccccc2c1C(=O)OC/C(O)=C(\C#N)c1nc2ccccc2[nH]1	active: 20.6 µM	
Cc1n[nH]c(=O)n(N=Cc2cccs2)c1=O	inactive	
CC(C)c1nc2ccc(C(=O)NCc3ccc(N(C)C)cc3)cc2o1	inactive	
C=CC[n+]1c(-c2ccc(C)cc2)csc1NNC(=O)Nc1ccccc1	active: 9.2 µM	
CCOC(=O)C1(Cc2cccc(OC)c2)CCN(Cc2cccc3c2OCO3)CC1	active: 18.4 µM	
C[C@H]1CN=C(N(C)C)N1CCc1cccc(F)c1	inactive	
Cc1ccc2cc(CCNC(=O)C(=O)c3c(C)[nH]c4ccccc34)c(=O)[nH]c2c1	inconclusive [inhibitor, single point]	
Cc1cc(CNC(=O)COC(=O)C2CC3CCCC(C2)C3=O)cc(C)c1O (configuration not stated)	inactive	
CN(C)S(=O)(=O)n1cc(/C=C(\NC(=O)c2ccccc2)C(=O)NCCCN2CCOCC2)c2ccccc21	inconclusive [inhibitor, single point]	
Cc1cccc(N(CC(=O)N2CCc3ccccc3C2)S(C)(=O)=O)c1C	inactive	
CCOc1cccc2sc(N3CCN(C(=O)c4ccc5ncsc5c4)CC3)nc12	inconclusive [inhibitor, single point]	
COc1ccc(N/N=C(/C(N)=O)C2=NC(C)(C)Cc3ccccc32)cc1	active: 16.4 µM	
Cn1nnnc1SCC(=O)NC1CCCC1	inactive	
O=C(CCN1C(=O)/C(=C/c2ccc(F)cc2)SC1=S)NNC(=O)c1ccncc1	inconclusive [inhibitor, single point]	
O=C(OC(C(=O)NCc1ccco1)c1ccc(Cl)cc1)c1cccs1 (configuration not stated)	inconclusive [inhibitor, single point]	
CCN/N=C(\Cc1nc2ccccc2[nH]1)c1ccccc1	inactive	
CC1CCCN(c2ccc(C(=O)NCc3ccco3)cc2[N+](=O)[O-])C1 (configuration not stated)	inconclusive [inhibitor, single point]	
CC(C)(O)c1cc2ccc(C#Cc3ccsc3)cc2c(=O)o1	inconclusive [inhibitor, single point]	
